We go through 101 molecules from paper PMC6919601, “Identification of Plasmodium dipeptidyl aminopeptidase allosteric inhibitors by high throughput screening” (PLoS ONE, 2019).

Structures are written as SMILES. Among all 110,000 compounds or so, about 230 (0.21%) showed an effect of 50% or more. Some of the results follow.
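Also: 30 min substrate incubation versus DMSO and 10 µM JCP410 controls.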

The target in this assay is DPAP1 (Plasmodium falciparum, UniProt Q8IIJ9). Put plainly: primary screen, percent inhibition; read by cleavage of a fluorogenic dipeptide substrate; higher = more effect of the substance. Details: species or system P. falciparum D10 trophozoite lysates; single well.
Chain of DPAP1 (Q8IIJ9 whole entry, looked up): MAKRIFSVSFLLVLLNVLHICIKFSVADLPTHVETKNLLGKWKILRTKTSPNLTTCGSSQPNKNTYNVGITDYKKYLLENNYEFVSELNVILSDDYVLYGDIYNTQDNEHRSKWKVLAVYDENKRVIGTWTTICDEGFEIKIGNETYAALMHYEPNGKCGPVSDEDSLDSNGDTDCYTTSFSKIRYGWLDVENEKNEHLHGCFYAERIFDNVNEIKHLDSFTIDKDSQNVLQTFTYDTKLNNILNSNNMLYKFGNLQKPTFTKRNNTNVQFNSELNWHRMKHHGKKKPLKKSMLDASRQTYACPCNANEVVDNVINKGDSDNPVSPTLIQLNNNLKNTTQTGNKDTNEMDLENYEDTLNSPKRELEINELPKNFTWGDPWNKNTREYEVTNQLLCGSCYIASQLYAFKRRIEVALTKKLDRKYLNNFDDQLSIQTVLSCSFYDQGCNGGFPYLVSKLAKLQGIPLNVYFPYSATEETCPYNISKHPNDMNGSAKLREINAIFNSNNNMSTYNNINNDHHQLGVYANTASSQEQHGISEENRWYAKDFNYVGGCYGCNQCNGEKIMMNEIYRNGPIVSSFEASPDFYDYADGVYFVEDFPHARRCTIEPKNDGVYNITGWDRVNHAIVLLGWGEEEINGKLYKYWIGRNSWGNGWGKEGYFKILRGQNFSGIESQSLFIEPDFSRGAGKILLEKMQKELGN
Consider `CC(NC(=O)NCc1ccccc1)c1c(-n2cccc2)sc2c1CCCC2` (centres unmarked), for which the “% Inhibition @ 10 uM” value came to 5.39%.
Consider `CC[C@@H](NC(=O)[C@H](CCS(=O)(=O)c1ccccc1)NC1=NS(=O)(=O)c2ccccc21)C(=O)c1nc(-c2ccccc2)no1`, for which the “% Inhibition @ 10 uM” value amounted to 4.54%.
`N#CCNC(=O)[C@H](CSCc1ccccc1)NC(=O)N1CCN(C(=O)c2ccco2)CC1`: the “% Inhibition @ 10 uM” value is on record as -5.21%.
In the case of `CCCCn1c(=N)c(C(N)=S)cc2c(=O)n3cccc(C)c3nc21`, the “% Inhibition @ 10 uM” value was -3.19%.
`Cc1c(Br)c(C(=O)N2CCN3CCCC3C2)nn1C` (centres unmarked): the “% Inhibition @ 10 uM” value was -1.55%.
Regarding `Cc1c2cnn(CC(=O)N3CCN(C4CCCCC4)CC3)c(=O)c2c(C)n1Cc1ccccc1Cl`, the “% Inhibition @ 10 uM” value worked out at 2.84%.
As to `COc1ccccc1C(=O)NC(C)CC(C)C` (centres unmarked), the “% Inhibition @ 10 uM” value was determined as 2.48%.
Take `O=C(NCCCn1ccnc1)c1nc(Cn2c(C(F)(F)F)nc3ccccc32)no1`: the “% Inhibition @ 10 uM” value was determined as 0.883%.
Turning to `CCOP(=O)(OCC)C1(C#N)CC1`, the “% Inhibition @ 10 uM” value was 3.25%.
`CN(C)S(=O)(=O)n1cc(/C=C(\NC(=O)c2ccccc2F)C(=O)NCCCO)c2ccccc21`: the “% Inhibition @ 10 uM” value is reported as -0.0235%.
As for `COCCNC(=O)c1cc2ccc3cccnc3c2[nH]1`, the “% Inhibition @ 10 uM” value was found to be 0.36%.
As to `COc1ccc(CC(=O)NCC2COc3ccccc3O2)cc1OC` (centres unmarked), the “% Inhibition @ 10 uM” value is -3.41%.
Take `COc1ccc(OC)c(CN2CCN(C(=O)Cc3ccccc3)CC2)c1`: the “% Inhibition @ 10 uM” value was -7.09%.
As to `COC(=O)c1ccc(/C=C2\N=C(c3ccc(C(C)(C)C)cc3)OC2=O)cc1`, the “% Inhibition @ 10 uM” value is reported as 6.11%.
The same measure for `CC(C(=O)N1CCN(C(=O)c2ccco2)CC1)n1sc2ccccc2c1=O` (centres unmarked): -4.59%; for `NC(=O)/C(=C\c1ccco1)NC(=O)c1ccccc1`: 4.78%; for `Cc1ccc(Cn2c(=O)c3cccnc3n(CC(N)=O)c2=O)cc1`: -5.27%.
For the molecule `COc1ccc2ncc(C(=O)c3ccccc3)c(N3CCC(C)CC3)c2c1`, the “% Inhibition @ 10 uM” value is recorded as -2.67%.
The same measure for `Cc1nn(CC(=O)NCCc2c[nH]c3ccccc23)c(=O)c2nn(-c3ccccc3)c(C)c12`: -0.846%; for `CCc1ccc(-c2nc(CSCC(=O)N3CCN(c4ccccn4)CC3)c(C)o2)cc1`: 2.37%; for `CCc1ccccc1N(CC(=O)NC(C)(C)C)S(C)(=O)=O`: 1.52%.
Consider `COc1ccc(OC)c2c1CC[C@@H]1NC(=O)CO[C@H]21`, for which the “% Inhibition @ 10 uM” value was -2.32%.
In the case of `C=C(CC(CN1CCOCC1)C(=O)c1ccccc1)C(=O)c1ccccc1` (centres unmarked), the “% Inhibition @ 10 uM” value is recorded as -0.661%.
Regarding `O=C(CSc1nc2c(oc3ccccc32)c(=O)n1Cc1ccco1)NCc1ccccc1`, the “% Inhibition @ 10 uM” value is on record as 2.33%.
As to `Nc1c(C(=O)Nc2ccccc2)sc2ncc([N+](=O)[O-])cc12`, the “% Inhibition @ 10 uM” value was -3.16%.
The value for `O=C(O)c1ccccc1NC(=O)c1ccc([N+](=O)[O-])cc1C(=O)O` was 2.5%; that for `COCCNCc1c(C(=O)O)n(Cc2ccc(F)cc2)c2cc(C)ccc12` was -6.92%; that for `O=C(CCCC(=O)Nc1cccc2ccccc12)Nc1cccc2ccccc12` was 3.32%.
For the molecule `O=C(NCCCN1CCCC1=O)c1cnn(-c2ccccc2)c1-n1cccc1`, the “% Inhibition @ 10 uM” value is given as -3.58%.
As to `Cc1ccc(-c2nc(NC(=O)CCCC(=O)O)sc2C)cc1`, the “% Inhibition @ 10 uM” value is reported as -0.99%.
For `CCN1C/C(=C\c2cccs2)C(=O)/C(=C/c2cccs2)C1`, the “% Inhibition @ 10 uM” value was 4.06%.
As for `Cc1cc(C)n2nc(NCc3cccs3)nc2n1`, the “% Inhibition @ 10 uM” value is reported as -0.671%.
Take `CC1C(O)CC(c2ccc(Cl)cc2)NC1c1ccc(Cl)cc1` (centres unmarked): the “% Inhibition @ 10 uM” value is -2.56%.
Consider `CCC(C(=O)Nc1cc(C)ccc1O)c1ccccc1` (centres unmarked), for which the “% Inhibition @ 10 uM” value is 0.528%.
On to `CN1CCCN(Cc2ccc([N+](=O)[O-])s2)CC1`, for which the “% Inhibition @ 10 uM” value is given as 4.81%.
As to `CCOC(=O)C1CCN(c2ccc([N+](=O)[O-])cn2)CC1`, the “% Inhibition @ 10 uM” value is listed as -1.56%.
As for `O=C1c2ccc3c4c(ccc(c24)C(=O)N1CCO)C(=O)N(CCO)C3=O`, the “% Inhibition @ 10 uM” value amounted to 4.44%.
Consider `Nc1ncc(Br)cc1S(=O)(=O)NCc1ccccc1Cl`, for which the “% Inhibition @ 10 uM” value worked out at 6.98%.
As to `Cc1cc(C)c(C#N)c(SCC(=O)c2ccc(O)c(O)c2)n1`, the “% Inhibition @ 10 uM” value was 2.01%.
With `O=C(NC1CCC(CC2CCC(NC(=O)C3CCCO3)CC2)CC1)C1CCCO1` (centres unmarked), the “% Inhibition @ 10 uM” value was 0.528%.
For `CC1CCCCN1C(=O)CN(C)S(=O)(=O)c1cccc2nsnc12` (centres unmarked), the “% Inhibition @ 10 uM” value amounted to 0.317%.
The value for `O=c1c2ccccc2nc2n1-c1ccccc1CCC2` was -3.49%.
The value for `CCOCCCNC(=O)c1ccc(CS(=O)(=O)Cc2cccc(Cl)c2)o1` was -0.971%; that for `CC(C)CC(=O)Nc1ccc(-c2nc3ncccc3o2)cc1` was -3.63%.
For the molecule `CCOC(=O)c1c(N)n(-c2ccccc2OC)c2nc3ccccc3nc12`, the “% Inhibition @ 10 uM” value amounted to 4.73%.
In the case of `Cc1cc(C(=O)O)c(C)n1Cc1ccccc1`, the “% Inhibition @ 10 uM” value came to 3.24%.
For `O=C(O)CNS(=O)(=O)c1ccc2c(c1)Cc1cc(S(=O)(=O)NCC(=O)O)ccc1-2`, the “% Inhibition @ 10 uM” value worked out at 1.97%.
`CCOC(=O)C1=C(N)OC2=C(C(=O)CC(c3ccccc3)C2)C1c1cccc(OC)c1OC` (centres unmarked): the “% Inhibition @ 10 uM” value is recorded as 3.86%.
As to `CC1=C(C(=O)OCCOC(C)C)C(c2ccc(Cl)cc2Cl)CC(=O)N1` (centres unmarked), the “% Inhibition @ 10 uM” value is reported as -2.24%.
With `CCCC(=O)NCc1nc2ccccc2n1CC(C)C`, the “% Inhibition @ 10 uM” value is -7.33%.
As to `CC(C)C1Cc2c(c(S)sc(=N)c2C#N)CO1` (centres unmarked), the “% Inhibition @ 10 uM” value is given as 30.6%.
In the case of `CN1C(=O)C(=Cc2c[nH]c3ccccc23)C(=O)N(C)C1=S`, the “% Inhibition @ 10 uM” value was -4.23%.
Regarding `CCC(C)NC(=O)C1c2cc(OC)c(OC)cc2C(=O)N(C)C1c1cccs1` (centres unmarked), the “% Inhibition @ 10 uM” value was -1.31%.
On to `COc1ccccc1NC(=O)c1ccc2c(c1)C(=O)N(Cc1ccco1)C2=O`, for which the “% Inhibition @ 10 uM” value turned out to be 4.64%.
The value for `Clc1ccc(N2CCN(C/C(Br)=C/c3ccccc3)CC2)cc1` was -4.95%; that for `CCCCOC(=O)c1[nH]ncc1[N+](=O)[O-]` was -4.08%; that for `CC(C)c1cc(C(N)=O)c(NC(=O)Cc2c(Cl)cccc2Cl)s1` was -3.92%.
Take `CCNc1nc(OC(C(F)(F)F)C(F)(F)F)nc(N(c2ccccc2)c2ccccc2)n1`: the “% Inhibition @ 10 uM” value is listed as -2.74%.
`O=C(Nc1cccnc1)C1OCCc2ccccc21` (centres unmarked): the “% Inhibition @ 10 uM” value is reported as -7.86%.
For `CC(C)(C)c1ccc(C(=O)NCc2nnc(S)n2-c2ccccc2)cc1`, the “% Inhibition @ 10 uM” value amounted to 3.06%.
Take `COc1ccc(C(=O)/C=C/c2cccs2)cc1`: the “% Inhibition @ 10 uM” value was 3.85%.
The same measure for `NS(=O)(=O)c1ccc(CCNC(=O)c2csc3c2CCCC3)cc1`: 1.93%; for `Cc1nc2nc(-c3cccnc3)nn2c(C)c1Cl`: 2.42%; for `CCOc1ccc(C(=O)n2cnc3cc(C)c(C)cc32)cc1`: 5.23%.
For `COc1ccc2[nH]cc(CCNC(=O)NC3CCCCC3)c2c1`, the “% Inhibition @ 10 uM” value was -4.07%.
As to `COc1ccc(C2Nn3c(nnc3-c3ccccc3)SC2C(=O)N2CCCCC2)cc1Cl` (centres unmarked), the “% Inhibition @ 10 uM” value is 0.0289%.
Turning to `NC(=O)c1ccccc1NC(=O)COc1c(F)c(F)cc(F)c1F`, the “% Inhibition @ 10 uM” value is reported as -4.41%.
Take `N#C/C(=C(/O)c1cccc(F)c1)c1nc2ccccc2s1`: the “% Inhibition @ 10 uM” value amounted to 4.3%.
With `CC1CCc2c(sc3ncnc(SC(C)C(=O)O)c23)C1` (centres unmarked), the “% Inhibition @ 10 uM” value is given as 4.18%.
The value for `CC1CC(C)CN(c2nc3c(c(=O)n(C)c(=O)n3C)n2Cc2ccccc2Cl)C1` (centres unmarked) was -2.36%; that for `OCC/N=C1\CCc2c1[nH]c1ccc(C3CCCCC3)cc21` was 1.26%.
Consider `C1=CC2(CCN(Cc3cccnc3)CC2)c2ccccc21`, for which the “% Inhibition @ 10 uM” value is reported as 4.9%.
Regarding `CC(C)NS(=O)(=O)c1ccc(CCC(=O)NCc2ccncc2)cc1`, the “% Inhibition @ 10 uM” value was -4.15%.
As for `CCc1ccc(-c2cc(C(F)(F)F)n3nc(C(=O)N(C)Cc4cnn(C)c4)cc3n2)s1`, the “% Inhibition @ 10 uM” value is recorded as -1.36%.
Take `CCN(CC)C(=O)COc1ccc(C2C(C#N)=C(N)Oc3[nH]nc(-c4ccc(C)cc4)c32)cc1OC` (centres unmarked): the “% Inhibition @ 10 uM” value was determined as 4.99%.
As for `Cn1nc(C(=O)NC2CCN(Cc3ccccc3)CC2)c2c1-c1ccccc1S(=O)(=O)C2`, the “% Inhibition @ 10 uM” value is 1.23%.
For `O=C1OC(c2cccc3ccccc23)=N/C1=C/c1cc(Br)cs1`, the “% Inhibition @ 10 uM” value is given as -0.0785%.
On to `Cc1cc(C)nc(SCC(=O)NC(C)c2ccccc2)n1` (centres unmarked), for which the “% Inhibition @ 10 uM” value came to 10.9%.
For `C/N=C1\S/C(=C/c2ccc(OC)c(Cl)c2)C(=O)N1C`, the “% Inhibition @ 10 uM” value was found to be 4.37%.
On to `O=c1c(N2CCCC2)c(Cl)cnn1-c1ccccc1`, for which the “% Inhibition @ 10 uM” value turned out to be 1.83%.
With `CC(NC=C1C(=O)NC(=O)NC1=O)c1ccccc1` (centres unmarked), the “% Inhibition @ 10 uM” value was 1.4%.
The value for `COc1ccc(-c2noc(CNC(=O)COc3ccc(Cl)cc3C)n2)cc1` was 0.486%.
With `CCS(=O)(=O)C1=NSC2=NC(=O)/C(=C\c3ccc(OC)cc3)C(=N)N21`, the “% Inhibition @ 10 uM” value was -3.39%.
For `Cc1cc(OCC(=O)N(Cc2cccs2)C2CCS(=O)(=O)C2)ccc1Cl` (centres unmarked), the “% Inhibition @ 10 uM” value is on record as 0.413%.
The value for `COc1ccc2c(c1)nc(O)c1sc3ccccc3c12` was 0.163%; that for `CCc1ccc(-c2cn3c(n2)sc2cc(C(=O)OC)ccc23)cc1` was 0.0882%.
As to `CC(=O)Nc1ccc(NC(=O)CN(c2ccc(F)cc2)S(=O)(=O)c2ccc(C)cc2)cc1`, the “% Inhibition @ 10 uM” value is recorded as -7.58%.
Take `COc1cccc(C2C(C(=O)Nc3ccccc3C)=C(C)Nc3nc(CCCO)nn32)c1` (centres unmarked): the “% Inhibition @ 10 uM” value is listed as -3.04%.
`CC(C)(C)c1ccc(C(=O)N2CCN(c3nc4ccccc4s3)CC2)cc1`: the “% Inhibition @ 10 uM” value is given as -2.39%.
On to `COCCCNC(=O)c1noc2c1COc1ccc(C)cc1-2`, for which the “% Inhibition @ 10 uM” value is 5.1%.
Consider `CCN(Cc1ccccc1)C(=O)Cc1ccccc1`, for which the “% Inhibition @ 10 uM” value was determined as 1.91%.
Turning to `N#CCCS(=O)(=O)c1ccc(Cl)c(Cl)c1`, the “% Inhibition @ 10 uM” value is 6.33%.
Consider `NC(=O)C1CCN(C(=O)CCNS(=O)(=O)c2cc(Br)cnc2N)CC1`, for which the “% Inhibition @ 10 uM” value came to 3.09%.
Take `Cc1cc(C)c(C#N)c(SC/C=C/c2ccccc2)n1`: the “% Inhibition @ 10 uM” value was 1.35%.
Consider `OCC1CCCN1Cc1c(F)cccc1Cl` (centres unmarked), for which the “% Inhibition @ 10 uM” value is recorded as -0.603%.
The value for `CCOc1ccc(OCc2ccc(C(=O)N3CCc4ccccc4C3)cc2)cc1` was 3.72%; that for `Clc1ccc(CN2CCOCC2)cc1Cl` was -0.603%.
For the molecule `Nc1nonc1C(=O)NCCNCc1ccccc1`, the “% Inhibition @ 10 uM” value is 4.96%.
Consider `Cn1cc(Br)c(C(=O)N2CCc3ccccc3C2)n1`, for which the “% Inhibition @ 10 uM” value came out at 3.65%.
Consider `Cc1ccc2oc(=O)c3cnn(CC(=O)NCc4ccc(C)o4)c3c2c1`, for which the “% Inhibition @ 10 uM” value is -3.45%.
With `Cc1ccc(CNC(=O)CCCC(=O)O)cc1`, the “% Inhibition @ 10 uM” value is recorded as -4.6%.
